{
  "source": "ChEMBL document CHEMBL4888484",
  "about": "“Replenishing the malaria drug discovery pipeline: Screening and hit evaluation of the MMV Hit Generation Library 1 (HGL1) against asexual blood stage Plasmodium falciparum ,using a nano luciferase reporter read-out” (2022)",
  "note": "About 540 (0.36%) of roughly 150,000 compounds showed an effect of 50% or more. The list shows a part of the results.",
  "data": [
    {"system": "Plasmodium falciparum", "assay": "Primary screen in NF54 nanoGlo assay, in single point, at 2uM, 72h; a lower Z score goes with more inhibition", "type": "functional, Erythrocyte", "details": "timepoint 72 hour", "units": {"% Inhibition": "%"}, "values": [
      {"smiles": "NC(=O)c1cccnc1NCCc1nc2ccccc2[nH]1", "% Inhibition": -2, "Z score": 0.32},
      {"smiles": "CC(CC(F)(F)F)C(=O)N1C[C@H]2COC[C@H]2C1", "note": "(stereo partly specified)", "% Inhibition": 3, "Z score": -0.31},
      {"smiles": "CC(C)NC(=O)CCN1CC[C@@]2(CCCN(Cc3ccc(C(C)C)cc3)C2=O)C1", "% Inhibition": 7, "Z score": -1.11},
      {"smiles": "CC(C)(C)C1CC(C(=O)NCc2csc(=O)[nH]2)C1", "note": "(stereo unspecified)", "% Inhibition": -10, "Z score": 1.7},
      {"smiles": "Cc1sc(-c2cc(C(F)(F)F)on2)cc1S(=O)(=O)Nc1ccc(F)cc1", "% Inhibition": -1, "Z score": 0.23},
      {"smiles": "COc1ccc(NC(=O)CCNS(=O)(=O)c2ccc3c(c2)c(=O)n(C)c(=O)n3C)cc1OC", "% Inhibition": -5, "Z score": 0.81},
      {"smiles": "O=C1CO[C@H]2CCN(Cc3cccc4ccoc34)C[C@@H]2N1", "% Inhibition": -1, "Z score": 0.24},
      {"smiles": "Cc1ccc(-c2noc(N3CCN4C(=O)C(=O)NC[C@H]4C3)n2)cc1", "% Inhibition": -17, "Z score": 2.26},
      {"smiles": "O=S(=O)(c1ccccc1)N1C2C=CC(C2)C1(C(F)(F)F)C(F)(F)F", "note": "(stereo unspecified)", "% Inhibition": -9, "Z score": 0.93},
      {"smiles": "Cc1nnc(O)nc1Nc1ccc(Cl)c(Cl)c1", "% Inhibition": -13, "Z score": 1.18},
      {"smiles": "O=C(c1cccc(-c2cn[nH]c2)c1)N1CCN(c2ccccn2)CC1", "% Inhibition": -6, "Z score": 0.97},
      {"smiles": "CC(C)NC(=O)N(Cc1cccc(Cl)c1)C[C@H]1CC(c2ccccc2Cl)=NO1", "% Inhibition": -9, "Z score": 1.32},
      {"smiles": "CCc1csc(-c2ccc(S(=O)(=O)Nc3ccc(C)c(C)c3)s2)n1", "% Inhibition": -6, "Z score": 1.07},
      {"smiles": "Cn1c(N2CCC(C(=O)NCc3cccs3)CC2)cc(=O)n(C)c1=O", "% Inhibition": -11, "Z score": 1.66},
      {"smiles": "CCn1ncc(CNC(=O)[C@H](C)n2ccnc2C)c1C", "% Inhibition": -10, "Z score": 1.01},
      {"smiles": "Cn1c(=O)c2c(ncn2CC(=O)c2ccc3c(c2)OCCO3)n(C)c1=O", "% Inhibition": -14, "Z score": 1.93},
      {"smiles": "Cc1ncn(CC(=O)N2CCC(c3nnc(-c4ccc(F)cc4)o3)CC2)c(=O)c1C", "% Inhibition": -14, "Z score": 1.62},
      {"smiles": "Cc1cccc(-c2ncc(CN3CCCN(S(=O)(=O)N4CCCC4)CC3)cn2)c1", "% Inhibition": -19, "Z score": 3.13},
      {"smiles": "CN(C)c1nc2cc(NC(=O)c3ccco3)ccc2o1", "% Inhibition": -24, "Z score": 4.64},
      {"smiles": "O=C(NCC1(CN2CCOCC2)CC1)Nc1cccc(-c2cscn2)c1", "% Inhibition": 0, "Z score": 0.08},
      {"smiles": "Cc1cc(C)nc(NC(=O)N(CCO)C2CC2)c1", "% Inhibition": -11, "Z score": 1.07},
      {"smiles": "C[C@H](NC(=O)c1nc(C2CC2)nn1C)c1ccc(OC(F)F)cc1", "% Inhibition": -3, "Z score": 0.54},
      {"smiles": "Cc1noc(C)c1CCCN[C@@H](C)c1cccc(O)c1", "% Inhibition": -4, "Z score": 0.37},
      {"smiles": "COc1ccc(-c2noc(C3(c4cccc(Cl)c4)CCOCC3)n2)cc1", "% Inhibition": -7, "Z score": 0.98},
      {"smiles": "CC1CN(C(=O)c2cccn(C)c2=O)CC(C)N1", "note": "(stereo unspecified)", "% Inhibition": 12, "Z score": -1.71},
      {"smiles": "Fc1cccc(Cl)c1CNc1cc(-c2ccncc2)nc2ccnn12", "% Inhibition": -4, "Z score": 0.44},
      {"smiles": "Cc1cc(O)ccc1C(=O)N[C@H](c1cnn(C)c1)C1CC(O)C1", "note": "(stereo partly specified)", "% Inhibition": 5, "Z score": -1.01},
      {"smiles": "Nc1ccc(-c2cc(C(=O)N3CCOCC3)ccn2)cn1", "% Inhibition": -7, "Z score": 1.05},
      {"smiles": "Cc1ccc(Oc2cnn(-c3ccc(F)cc3)c(=O)c2Nc2cccc(C(=O)N[C@@H](C)c3ccccc3)c2)cc1", "% Inhibition": -7, "Z score": 0.65},
      {"smiles": "O=C(c1ccc(Cn2cc(Br)cn2)o1)N1CCC12CCC2", "% Inhibition": -17, "Z score": 3.15},
      {"smiles": "COc1ccnc(NCCc2nnc3n2CCN(C)C3=O)n1", "% Inhibition": -5, "Z score": 0.87},
      {"smiles": "CN(C)C(=O)N1CCC(c2nc(Cc3cccs3)no2)CC1", "% Inhibition": -3, "Z score": 0.36},
      {"smiles": "O=C(Nc1ccccc1)Nc1nc2c(s1)CCCCCCCCCC2", "% Inhibition": 44, "Z score": -5.02},
      {"smiles": "O=C(Cn1nc(C2CC2)ccc1=O)Nc1ncccc1O", "% Inhibition": 15, "Z score": -1.96},
      {"smiles": "Cc1ccccc1Cn1nc(C)c(NC(=O)c2cc(-c3ccc4c(c3)OCO4)on2)c1C", "% Inhibition": -7, "Z score": 0.99},
      {"smiles": "COCCC(=O)N1CC2CC1CS2(=O)=O", "note": "(stereo unspecified)", "% Inhibition": -11, "Z score": 1.23},
      {"smiles": "O=C(c1nc2ccc(F)cc2[nH]1)N1C[C@H]2CCC[C@@H](C2)C1", "% Inhibition": -6, "Z score": 1.17},
      {"smiles": "Cc1nn(-c2ccccc2)c(Oc2ccc(Cl)cc2)c1CN(C(=O)NC(C)(C)C)C1CC1", "% Inhibition": -1, "Z score": 0.09},
      {"smiles": "C[C@@H](c1ccco1)N(C)C(=O)NCC(C)(C)CCS(C)(=O)=O", "% Inhibition": -13, "Z score": 2.17},
      {"smiles": "COc1cc(OC)cc(C(=O)N2CCCN(c3nc(CC(C)C)nc4c3cnn4-c3ccccc3)CC2)c1", "% Inhibition": -2, "Z score": 0.27},
      {"smiles": "Cc1cccc(C2(C(=O)N(C)c3nnc(C)s3)CCCCC2)c1", "% Inhibition": 2, "Z score": -0.16},
      {"smiles": "CCOCCCNC(=O)N1CC[C@H](c2nc(-c3cccn3C)no2)C1", "% Inhibition": -12, "Z score": 1.61},
      {"smiles": "O=C(CNC(=O)C1CCCCC1)OCc1nnsc1Cl", "% Inhibition": -2, "Z score": 0.23},
      {"smiles": "Cc1ccc([C@H]2CN(C(=O)c3ccncc3F)C[C@@H]2N(C)C)cc1", "% Inhibition": -6, "Z score": 0.61},
      {"smiles": "COc1ccc2[nH]c3c(c2c1)CCN(C(=O)c1cc(Cl)cc(Cl)c1)[C@@H]3c1ccccc1OC", "% Inhibition": -11, "Z score": 1.21},
      {"smiles": "COc1ccc(CNCc2cccc(OCc3ccc(Cl)cc3)c2)cc1", "% Inhibition": -32, "Z score": 3.71},
      {"smiles": "Oc1cccc(C2Nc3ccc(Cl)cc3C3OCCC23)c1", "note": "(stereo unspecified)", "% Inhibition": -12, "Z score": 1.44},
      {"smiles": "Cc1noc(CCN[C@@H](C)c2ccc(-n3cnnn3)cc2)n1", "% Inhibition": -6, "Z score": 1.08},
      {"smiles": "COc1cnc(N(C)C(=O)CCC2CCOCC2)nc1", "% Inhibition": -12, "Z score": 1.58},
      {"smiles": "Nc1ccc(OCC(F)(F)F)c(F)c1", "% Inhibition": 25, "Z score": -2.86},
      {"smiles": "Cc1cnn([C@H]2CCCN(c3ccnc(CO)c3)C2)c1", "% Inhibition": -12, "Z score": 1.24},
      {"smiles": "Cc1ccc(NC(=O)c2cccc(N3C[C@@H](C(=O)Nc4ccc(C)cc4F)CC3=O)c2)cc1", "% Inhibition": -26, "Z score": 2.56},
      {"smiles": "COc1cc(OC)nc(N[C@@H]2COCC[C@@H]2OCc2c(C)noc2C)n1", "% Inhibition": -10, "Z score": 1.77}
    ]}
  ]
}
